Reference: PubChem BioAssay AID485367 (National Center for Advancing Translational Sciences (NCATS), 2010)
Hit rate of the full screen: of about 330,000 compounds, about 560 (0.17%) were called active. The inconclusive results got no clear call from the source; some entries with a clear call stand among them for comparison. Calls follow the shape of the dose curve; as a rule, active = well fitted inhibition curve with a large enough effect; inconclusive = small, poorly fitted or top-dose-only effect, or effect the other way; inactive = flat fitted curve, though single readings scatter. No potency is given beside an inconclusive call; the fits are too rough.

These molecules were tested against ATP-dependent 6-phosphofructokinase (Trypanosoma brucei brucei) (UniProt O15648) (assay: qHTS Assay to Find Inhibitors of T. brucei phosphofructokinase). Settings: T. brucei PFK, ADP-Glo luminescence; activity, negative = inhibition: at 57.5 µM (top of the series).
Sequence of UniProt O15648 (O15648 whole entry, looked up): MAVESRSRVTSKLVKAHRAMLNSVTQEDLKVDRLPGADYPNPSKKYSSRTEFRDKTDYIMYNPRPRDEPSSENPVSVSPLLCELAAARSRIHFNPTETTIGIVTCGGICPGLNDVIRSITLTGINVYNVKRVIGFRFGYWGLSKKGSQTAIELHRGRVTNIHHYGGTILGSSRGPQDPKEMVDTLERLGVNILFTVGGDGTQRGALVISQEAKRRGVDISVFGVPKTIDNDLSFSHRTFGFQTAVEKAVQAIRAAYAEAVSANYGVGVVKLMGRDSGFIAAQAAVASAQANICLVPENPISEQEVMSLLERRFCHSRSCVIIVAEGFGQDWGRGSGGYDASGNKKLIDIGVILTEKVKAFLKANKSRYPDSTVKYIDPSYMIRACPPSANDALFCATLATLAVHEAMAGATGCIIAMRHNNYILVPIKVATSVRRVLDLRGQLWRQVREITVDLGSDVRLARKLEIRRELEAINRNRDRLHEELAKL
Procedure, shortened: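 1.25 nM PFK with 0.5 mM F6P and 0.1 mM ATP in 0.1 M TEA pH 8.0, 5 mM MgCl2, incubated 45 min at room temperature; ADP measured by ADP-Glo luminescence; compounds titrated up to 57 uM.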
Also: nearly all actives have a fitted effect of over 60% in size.
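For activity, negative = inhibition in this document: 0% = uninhibited 1x PFK enzyme wells and -100% = no-enzyme wells.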
Potency is read from the fitted curve at half-maximal effect; tags tell the direction and shape of the fitted curve.

SMILES | Potency | activity, negative = inhibition
CCOC(=O)c1cnc2c(C)cc(C)cc2c1Nc1ccc(S(=O)(=O)Nc2ncccn2)cc1 | inconclusive [falling, single point] | 
Cc1cc(C)n2nc(SCc3cc(=O)oc4cc(O)ccc34)nc2n1 | inconclusive [falling, single point] | 
Cc1ccc(-n2ncc(C(=O)Nc3cc(Cl)ccc3Cl)c2C2CCNCC2)cc1 |  | inactive: -3.96%
Cc1c(NC(=S)N2CCN(c3cccc(Cl)c3)CC2)c(=O)n(-c2ccccc2)n1C | inconclusive [falling, partial curve] | 
O=C(NCc1ccc(Cl)cc1)C1CCN(S(=O)(=O)c2ccccc2)CC1 | inconclusive [falling, single point] | 
Oc1ccc(-c2nc3ccc4ccccc4c3c3c2CCC3)cc1O |  | inactive: 9.16%
CC(C)OC(=O)c1cc(NC(=O)C2C3C=CC(O3)C2C(=O)O)cc(C(=O)OC(C)C)c1 (stereo not given) | inconclusive [activator, partial curve] | 
O=C(COc1ccc([N+](=O)[O-])cc1)Nc1ccc(S(=O)(=O)N2CCOCC2)cc1 | inconclusive [falling, partial curve] | 
Cc1ccc(-c2cc(C(=O)Nc3ccccc3C)c3ccccc3n2)o1 | inconclusive [falling, single point] | 
CCOC(=O)C1CCCN(C(=O)Cn2sc3nc(C)cc(C)c3c2=O)C1 (stereo not given) | active: 1.51 µM | 
Cc1cc(C)nc(-n2nc(C)c(Sc3ccc(F)cc3)c2N)n1 |  | inactive: -6.81%
c1coc(C2Nc3cccc4cccc(c34)N2)c1 | inconclusive [falling, single point] | 
CNc1cccccc1=S | active: 12 µM | 
Cc1ccc(CN(C)C(=O)c2cccc(S(=O)(=O)N3CCc4ccccc4C3)c2)o1 | inconclusive [falling, single point] | 
COC(C(=O)NNS(=O)(=O)c1ccccc1[N+](=O)[O-])c1ccccc1 (stereo not given) |  | inactive: 3.92%
COc1cc2ccccc2cc1C(=O)Nc1ccc(S(=O)(=O)Nc2cc(C)on2)cc1 | inconclusive [activator, single point] | 
Cc1ccc(N2C(=O)c3ccccc3C2O)nc1 (stereo not given) | inconclusive [falling, partial curve] | 
CCC(C)C(NC(=O)C1CCC(C)CC1)C(=O)Nc1ccc(OC)cc1 (stereo not given) |  | inactive: -6.14%
O=c1cc(NS(=O)(=O)c2ccccc2)nc(SCc2ccc(Cl)cc2)[nH]1 | inconclusive [falling, single point] | 
Cc1ccccc1NC(=O)C(=Cc1ccc(C(=O)O)cc1)C(=O)Nc1ccccc1C |  | inactive: 13.8%
